In PMC4336329 (PLoS ONE, 2015):
Screen size: about 310,000 compounds; about 2,200 (0.71%) showed an effect of 50% or more. The effect is printed as a negative number. The list shows a part of the results.

Biological target: human ether-à-go-go-related gene (hERG) potassium channel (human, UniProt Q12809)
Assay: primary screen, population patch clamp on CHO cells stably expressing hERG

Chain of human ether-à-go-go-related gene (hERG) potassium channel (Q12809 whole entry, looked up): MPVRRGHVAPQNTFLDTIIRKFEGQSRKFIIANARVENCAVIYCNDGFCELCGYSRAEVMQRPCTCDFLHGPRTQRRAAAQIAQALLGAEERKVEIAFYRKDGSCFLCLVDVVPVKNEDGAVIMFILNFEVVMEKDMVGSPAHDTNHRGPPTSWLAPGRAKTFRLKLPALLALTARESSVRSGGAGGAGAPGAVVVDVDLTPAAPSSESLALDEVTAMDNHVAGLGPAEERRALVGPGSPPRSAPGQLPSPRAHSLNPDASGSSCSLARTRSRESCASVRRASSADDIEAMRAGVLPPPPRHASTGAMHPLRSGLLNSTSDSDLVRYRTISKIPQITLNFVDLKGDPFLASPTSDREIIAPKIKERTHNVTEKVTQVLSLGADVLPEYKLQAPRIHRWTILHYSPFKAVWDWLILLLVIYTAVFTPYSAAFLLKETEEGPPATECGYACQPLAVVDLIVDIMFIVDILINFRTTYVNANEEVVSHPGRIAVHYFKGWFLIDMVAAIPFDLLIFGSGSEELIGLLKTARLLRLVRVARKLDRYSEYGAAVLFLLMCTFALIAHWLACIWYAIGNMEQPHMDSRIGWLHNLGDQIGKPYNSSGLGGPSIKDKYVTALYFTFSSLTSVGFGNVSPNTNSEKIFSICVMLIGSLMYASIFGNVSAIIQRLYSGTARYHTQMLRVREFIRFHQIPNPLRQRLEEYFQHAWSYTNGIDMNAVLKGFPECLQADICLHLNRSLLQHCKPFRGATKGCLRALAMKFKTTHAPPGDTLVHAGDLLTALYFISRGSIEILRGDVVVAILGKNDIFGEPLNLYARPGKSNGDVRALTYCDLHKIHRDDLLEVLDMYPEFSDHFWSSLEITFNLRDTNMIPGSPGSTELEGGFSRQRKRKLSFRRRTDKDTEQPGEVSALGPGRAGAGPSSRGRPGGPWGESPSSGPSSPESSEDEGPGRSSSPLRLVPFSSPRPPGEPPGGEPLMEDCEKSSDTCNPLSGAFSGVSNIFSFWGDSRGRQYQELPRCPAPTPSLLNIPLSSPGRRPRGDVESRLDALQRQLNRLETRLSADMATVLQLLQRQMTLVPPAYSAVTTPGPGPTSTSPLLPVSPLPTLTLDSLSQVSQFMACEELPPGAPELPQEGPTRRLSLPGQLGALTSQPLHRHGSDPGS

SMILES | hERG current change (%, negative = inhibition) at 1uM [%]
CCCc1cc(=O)[nH]c(SCC(=O)c2ccc3c(c2)NC(=O)CO3)n1 | -6.11
COC(=O)c1ccc(-c2nc(-c3cccs3)no2)cc1 | 14.8
Cc1cc(NC(=O)CCS(=O)(=O)c2ccc3c(c2)NC(=O)C(C)S3)ccc1Br (stereo not shown) | 15.7
CCN1C(=O)NC(=O)/C(=C\c2cn(CC(=O)N3CCCCC3)c3ccccc23)C1=O | 10.6
COc1ccccc1C1(CC(=O)Nc2nccs2)CCOC(C(C)C)C1 (stereo not shown) | 16.5
COc1ccc(-n2c(=O)[nH]cc(C(=O)Nc3ccc(NC(C)=O)cc3)c2=O)cc1 | 10.2
Cc1cc(NC(=O)CSc2nnnn2Cc2ccccc2)no1 | 2.51
COc1cc(CN2CCN(Cc3ccc4cc(F)ccc4n3)CC2CCO)cc(OC)c1 (stereo not shown) | -21.6
CC(/C=N/NC(=O)c1cc(-c2ccncc2)nc2ccccc12)=C\c1ccco1 | 0.477
C#CCOC(=O)CCCNc1ccc([N+](=O)[O-])cc1[N+](=O)[O-] | 8.85
CN(C(=O)c1ccc(NC(=O)Cc2ccc(NC(=O)C3CCN(C(=O)C4CCC4)CC3)cc2)cc1)C1CC1 | 17
Cn1cnnc1SCc1ccc(C#N)cc1Cl | -8.3
C/C(=N\Nc1ccc(C)c(Cl)c1)c1cccnc1 | 25
COc1ccc(NC(=O)CSc2nncc3ccccc23)cc1 | -5.64
C=CCNC(=O)/C(C#N)=C/c1ccccc1[N+](=O)[O-] | 3.79
CN(C)c1cc(N/N=C\c2ccccc2)nc(N(C)C)n1 | 12.8
Cc1cccc(-c2noc(CCC(=O)NCCc3ccccc3)n2)c1 | 12.6
COc1ccccc1NC(=O)NCc1ccccc1F | 17.4
CCOc1ccc(-c2n[nH]c(=S)o2)cc1 | 14.6
CN(C)CCCN(Cc1cc2cc3c(cc2[nH]c1=O)OCO3)C(=S)Nc1ccccc1 | 7.61
COCCN1Cc2cccc(C(=O)NCc3ccccc3OC)c2C1=O | 3.2
CCOc1cc(C#N)c(NC(=O)CSc2nnnn2-c2ccc(OC)cc2)cc1OCC | -14.6
COc1ccc(O)c(/C=N/NC(=S)NCCc2ccccc2)c1 | 15.7
CCCC(=O)NC(c1ccc(OC)c(OC)c1)c1c(O)ccc2ccccc12 (stereo not shown) | 4.84
CC1(C)C2CC=C(/C=N/NC(=O)c3ccc(O)cc3)C1C2 (stereo not shown) | -4.85
